Experimental data reported in the supplement of paper PMC7826260.
This is one part of the list. Viral Rep nickase domains cut single-stranded DNA in vitro (1 h at 37 °C, 3 µM enzyme); the outer parts of the 90-letter strands are left off. Uncut reads are compared with the no-enzyme pool on a log2 scale; strong cutting gives strongly negative numbers. There is no active / inactive call. Counts are relative to all reads; uncut strands gain when others are lost, and binding without cutting may add a little.

Columns and labels:
Test in all cases: uncleaved DNA left, log2 of reads against the no-enzyme library (log2 ratio); higher = less cleavage (more negative = more Rep cleavage of the k-mer); sequences stand for … in CTCGTCCG…ACCGGAGA
[1] = system: T1, Rep nickase domain of Muscovy duck circovirus
T1 sequence (Rep 1-111, printed without the tag): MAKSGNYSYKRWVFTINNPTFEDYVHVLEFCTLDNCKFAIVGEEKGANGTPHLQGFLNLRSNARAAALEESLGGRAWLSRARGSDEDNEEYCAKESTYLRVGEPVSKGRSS
Procedure: (§1)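 A pool of 90-nt single-stranded DNAs with seven random bases just before the constant AC of the nick site (name = the seven bases) was cut by 3 µM recombinant His6-SUMO-tagged Rep nickase domain (300 nM DNA, 50 mM HEPES pH 8.0, 50 mM NaCl, 1 mM MnCl2, 1 h, 37 °C, three replicates). Uncut DNA was amplified and sequenced.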

[2] = system: T2, Rep nickase domain of banana bunchy top virus
T2 sequence (Rep 1-94, printed without the tag): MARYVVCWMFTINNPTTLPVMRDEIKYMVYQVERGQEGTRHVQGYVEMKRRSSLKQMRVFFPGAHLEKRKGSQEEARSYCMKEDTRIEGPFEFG
Procedure: as §1

[3] = system: T3, Rep nickase domain of cabbage leaf curl virus
T3 sequence (Rep 1-116, printed without the tag): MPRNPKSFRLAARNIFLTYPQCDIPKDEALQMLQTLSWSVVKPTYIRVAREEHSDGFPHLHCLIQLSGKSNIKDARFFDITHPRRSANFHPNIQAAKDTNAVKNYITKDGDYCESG
Procedure: as §1

[4] = system: T4, Rep nickase domain of chickpea chlorotic dwarf virus
T4 sequence (Rep 1-124, printed without the tag): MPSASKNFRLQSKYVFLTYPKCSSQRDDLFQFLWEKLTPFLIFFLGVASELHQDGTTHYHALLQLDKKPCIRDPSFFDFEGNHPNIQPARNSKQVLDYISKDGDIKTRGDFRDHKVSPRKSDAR
Procedure: as §1

[5] = system: T5, Rep nickase domain of faba bean necrotic yellows virus
T5 sequence (Rep 1-98, printed without the tag): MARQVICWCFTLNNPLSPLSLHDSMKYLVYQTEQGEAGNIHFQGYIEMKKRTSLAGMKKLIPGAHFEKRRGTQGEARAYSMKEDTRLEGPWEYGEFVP
Procedure: as §1

[6] = system: T6, Rep nickase domain of maize striate mosaic virus
T6 sequence (Rep 1-117, printed without the tag): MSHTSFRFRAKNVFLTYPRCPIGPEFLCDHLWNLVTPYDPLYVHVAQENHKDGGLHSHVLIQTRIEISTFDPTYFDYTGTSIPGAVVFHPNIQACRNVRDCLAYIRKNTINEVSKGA
Procedure: as §1

[7] = system: T7, Rep nickase domain of porcine circovirus 2
T7 sequence (Rep 2-116, printed without the tag): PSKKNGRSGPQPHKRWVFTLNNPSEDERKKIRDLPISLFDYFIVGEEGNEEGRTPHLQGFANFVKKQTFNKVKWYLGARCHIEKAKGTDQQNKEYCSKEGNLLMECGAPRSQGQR
Procedure: as §1

[8] = system: T8, Rep nickase domain of tomato yellow leaf curl virus
T8 sequence (Rep 1-136, printed without the tag): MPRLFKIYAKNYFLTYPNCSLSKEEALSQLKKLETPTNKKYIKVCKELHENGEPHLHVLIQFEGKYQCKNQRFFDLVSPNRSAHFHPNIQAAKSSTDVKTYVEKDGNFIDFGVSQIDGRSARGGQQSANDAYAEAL
Procedure: as §1

[9] = system: T9, Rep nickase domain of wheat dwarf virus
T9 sequence (Rep 1-137, printed without the tag): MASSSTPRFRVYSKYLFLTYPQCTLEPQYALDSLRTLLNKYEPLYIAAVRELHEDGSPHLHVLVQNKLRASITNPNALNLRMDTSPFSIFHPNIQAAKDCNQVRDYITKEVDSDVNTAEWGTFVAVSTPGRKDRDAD
Procedure: as §1

Sequence | uncleaved DNA left (log2) [1] | uncleaved DNA left (log2) [2] | uncleaved DNA left (log2) [3] | uncleaved DNA left (log2) [4] | uncleaved DNA left (log2) [5] | uncleaved DNA left (log2) [6] | uncleaved DNA left (log2) [7] | uncleaved DNA left (log2) [8] | uncleaved DNA left (log2) [9]
TTTGGGT | -0.0622 | -0.109 | -0.117 | 0.102 | -0.138 | -0.122 | -0.000792 | -0.115 | -0.108
TATGGTA | 0.117 | 0.0165 | 0.324 | 0.072 | 0.0412 | 0.972 | 0.0728 | 0.157 | 0.155
TTAAATT | -0.216 | -0.173 | -0.125 | -2.51 | 0.0287 | -0.311 | -1.02 | -0.0946 | -0.278
ACAACGA | -0.0478 | -0.092 | -0.449 | -0.392 | -0.123 | -1.1 | 0.0728 | -0.103 | -0.088
TATTACC | -3.91 | -3.13 | -2.97 | -3.11 | -3.26 | -1.11 | -3.72 | -0.0714 | -3.24
CACCGCT | -0.102 | -0.0342 | -0.421 | -2.02 | 0.0611 | -1.05 | -0.395 | -0.0281 | -0.0111
TTGCATA | 0.0477 | 0.127 | -0.339 | -0.845 | 0.0698 | -1.07 | 0.0862 | 0.14 | 0.0106
CGTCCAA | -0.0709 | -0.0465 | 0.0268 | -0.0604 | -0.141 | -0.384 | -0.0496 | -0.07 | 0.0143
TCATGGG | 0.135 | -0.0165 | -0.624 | -0.658 | 0.0791 | -1.01 | 0.109 | 0.0788 | -0.0844
ACCAATA | -0.0421 | 0.0215 | -0.248 | -1.37 | 0.00458 | -1.07 | 0.00795 | -0.0994 | -0.0386
ATGACAC | -0.0162 | -0.08 | 0.102 | 0.556 | -0.106 | -0.00657 | -0.073 | 0.0369 | 0.108
ACGAGTT | 0.108 | -0.0897 | -0.256 | -1.72 | 0.047 | -0.231 | 0.0187 | -0.047 | -0.00356
AAACTTA | -0.00127 | 0.118 | -0.152 | -2.65 | 0.116 | -0.433 | -0.141 | 0.153 | -0.0943
CCTCGCG | 0.128 | 0.0863 | -0.613 | 0.13 | 0.0957 | -0.619 | 0.194 | 0.149 | -0.0137
GCACAAA | -0.0788 | -0.0419 | -0.0793 | 0.386 | -0.0871 | -0.0669 | 0.0123 | 0.00269 | 0.051
CATAAGC | 0.0242 | 0.00855 | -0.305 | -0.646 | 0.0739 | -1.29 | 0.153 | 0.0317 | 0.0497

Sequence | uncleaved DNA left (log2) [1] | uncleaved DNA left (log2) [2] | uncleaved DNA left (log2) [3] | uncleaved DNA left (log2) [4] | uncleaved DNA left (log2) [5] | uncleaved DNA left (log2) [6] | uncleaved DNA left (log2) [7] | uncleaved DNA left (log2) [8] | uncleaved DNA left (log2) [9]
TACTTAA | -0.236 | -0.0157 | -0.182 | -1.31 | 0.0432 | -0.395 | -2.53 | 0.0124 | -0.000247
TTGATAG | 0.138 | -0.111 | -0.683 | -0.593 | 0.0588 | -1.03 | 0.122 | 0.0179 | -0.00554
CACCTAC | -0.296 | -0.251 | -0.488 | -2.65 | -0.0941 | -0.988 | -0.403 | -0.318 | -0.303
TGCAAGC | 0.0064 | 0.0162 | 0.00889 | 0.236 | -0.0219 | -0.256 | 0.0362 | 0.0401 | 0.00601
CTGTCTG | 0.0458 | 0.0687 | 0.0843 | 0.548 | -0.0164 | 0.544 | 0.0364 | -0.1 | 0.202
CGCTGTC | -0.131 | -0.0677 | 0.299 | 1.29 | -0.123 | 1.31 | -0.0823 | -0.165 | -0.0756
CCGGCCG | -0.0503 | -0.079 | -0.692 | -0.194 | -0.121 | -0.801 | 0.106 | -0.0792 | -0.233
ACGATGC | 0.135 | 0.123 | -0.479 | -0.373 | 0.0851 | -0.989 | 0.19 | -0.0113 | -0.0726
TCCAAAA | -0.00726 | -0.171 | 0.122 | -0.00815 | 0.0125 | -0.601 | 0.0115 | -0.0291 | -0.104
AGATACC | 0.175 | 0.144 | 0.341 | 0.769 | 0.0605 | 0.761 | 0.0799 | 0.0902 | 0.121
GGACGTC | 0.0844 | 0.172 | 0.857 | 1.81 | 0.0943 | 2.2 | 0.169 | 0.0352 | 0.11
GCTGGGA | 0.0792 | -0.0153 | 0.129 | 0.639 | -0.11 | 0.602 | 0.0874 | -0.0214 | -0.131
TCGGCAA | 0.112 | 0.0176 | 0.0171 | 0.108 | -0.024 | -0.222 | 0.0815 | -0.00238 | 0.0265
ATGTTAA | 0.143 | 0.0535 | -0.054 | -0.299 | 0.0812 | -0.421 | -0.0359 | 0.0743 | 0.0528
GGGTCCG | 0.155 | 0.101 | 0.562 | 1.2 | 0.094 | 1.27 | 0.244 | 0.00122 | 0.164
TGTATAA | -0.0475 | -0.0442 | -0.0105 | 0.183 | -0.0537 | 0.379 | 0.00977 | 0.103 | 0.0516
